Measured values: the supplement of paper PMC12217912
The list shows a part of the results. The full chains were built here from the parent and the listed change. Values near 0.05 are background.

B1: TEV protease; numbered along this chain (parent)
chain: MGESLFKGPRDYNPISSSICHLTNESDGHTTSLYGIGFGPFIITNKHLFRRNNGTLVVQSLHGVFKVKDTTTLQQHLVDGRDMIIIRMPKDFPPFPQKLKFREPQREERICLVTTNFQTKSMSSMVSDTSCTFPSGDGIFWKHWIQTKDGQCGSPLVSTRDGFIVGIHSASNFTNTNNYFTSVPKNFMELLTNQEAQQWVSGWRLNADSVLWGGHKVFMVKPEEPFQPVKEATQL

Variants of: B1
Experiment: raw area under fraction-flipped curve 0-4 h after induction (AUC4h, not background-subtracted), DNA-recorder readout of cleavage of the substrate (dimensionless); higher = more cleavage of the substrate by the protease variant
Conditions: temperature: 34 °C; time window: 0-4 h after rhamnose induction
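Further: Bxb1 expression induced with 0.2% (w/v) L-rhamnose at OD600 near 0.5, cultures sampled hourly, flipped fraction per protease–substrate barcode pair counted by paired-end Illumina sequencing.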

Row | Variant | area with substrate ENLYEQS | area with substrate ENLYMQS | area with substrate ENLYNQS | area with substrate ENLYQQS | area with substrate ENLYTQS | area with substrate ENLYVQS | area with substrate ENLYHQS | area with substrate ENLYKQS | area with substrate ENLYPQS | area with substrate ENLYSQS | area with substrate ENLYWQS | area with substrate ENLYIQS | area with substrate ENLYGQS | area with substrate ENLYRQS | area with substrate ENLYYQS | area with substrate ENLYLQS
1 | I86L | 0.0624 | 0.0778 | 0.065 | 0.0552 | 0.0896 | 0.13 |  |  |  |  |  |  |  |  |  | 
2 | P89M | 0.0556 | 0.055 | 0.0601 | 0.0449 |  | 0.0747 | 0.0605 | 0.0403 | 0.071 | 0.0528 | 0.0676 |  |  |  |  | 
3 | F95D | 0.0526 |  | 0.0548 |  |  |  |  |  |  |  |  | 0.0508 |  |  |  | 
4 | R109V | 0.0657 | 0.0801 | 0.0722 | 0.0595 |  | 0.0972 | 0.0616 | 0.0569 | 0.104 | 0.0708 | 0.0821 | 0.111 | 0.0533 | 0.0657 | 0.0856 | 
5 | V113I | 0.0596 | 0.0915 | 0.12 | 0.0584 |  |  | 0.0618 | 0.0253 |  |  | 0.0752 | 0.114 |  |  | 0.0632 | 
6 | S124L | 0.0715 | 0.0798 | 0.0557 |  | 0.0812 |  | 0.086 | 0.0607 | 0.071 |  |  |  | 0.0692 | 0.0604 |  | 
7 | T129G | 0.101 |  | 0.0834 | 0.0639 | 0.0773 |  | 0.0731 |  |  | 0.057 |  |  |  | 0.0817 |  | 
8 | P134N | 0.0648 | 0.0764 | 0.0592 | 0.045 | 0.0631 | 0.0898 | 0.046 | 0.0653 | 0.068 |  | 0.0669 |  |  |  |  | 0.0756
9 | I139R | 0.0546 |  | 0.0624 | 0.062 | 0.0922 |  | 0.0568 | 0.0575 | 0.0615 | 0.0595 | 0.0826 | 0.0671 | 0.082 | 0.0666 |  | 
10 | K142A | 0.0759 |  | 0.0606 |  | 0.0726 | 0.104 | 0.0776 |  | 0.0674 |  | 0.0732 |  |  | 0.0722 | 0.0715 | 
11 | T147K | 0.0673 |  |  | 0.0577 | 0.0569 |  | 0.066 | 0.0624 |  | 0.0576 |  | 0.0576 | 0.0552 | 0.0558 |  | 
12 | D149L | 0.0639 | 0.0593 |  | 0.0607 | 0.0683 |  | 0.0737 | 0.0782 | 0.0688 |  |  | 0.0828 | 0.0699 |  |  | 
13 | G150D | 0.0653 | 0.0646 | 0.0716 | 0.091 |  | 0.0658 |  | 0.0504 |  |  | 0.0497 | 0.0503 | 0.0443 | 0.0539 | 0.067 | 
14 | G153K | 0.0535 |  | 0.0562 |  |  | 0.0528 | 0.0418 |  |  | 0.0574 | 0.0463 |  | 0.0578 | 0.0487 |  | 
15 | S154Y | 0.12 | 0.0792 |  |  |  | 0.117 | 0.0434 | 0.0399 |  | 0.0755 |  | 0.102 |  | 0.0544 |  | 0.0737
16 | N178H | 0.0671 |  |  |  | 0.0841 |  | 0.0643 | 0.068 | 0.0672 |  | 0.108 | 0.136 | 0.0688 |  |  | 0.0657
17 | N178K | 0.0779 |  | 0.0684 | 0.0368 |  |  | 0.0692 |  | 0.0672 | 0.082 | 0.0667 | 0.126 | 0.0681 | 0.0759 | 0.064 | 0.119
18 | L190A | 0.0675 | 0.0856 | 0.0704 | 0.0507 | 0.0808 | 0.11 |  | 0.0499 | 0.0845 |  | 0.0767 | 0.116 |  | 0.064 | 0.0604 | 
